Results: the supplement of paper PMC3334620
The full ranking holds about 33,000 sequences; the median of “E-score (-0.5 to 0.5)” is about -0.035, and the highest 2% start at about 0.34. This is one part of the list.

target: T1, Mot3 (UniProt P54785); assay: PBM E-score (8-mer binding enrichment) (E-score (-0.5 to 0.5)); higher = stronger / more preferred TF binding; most listed sequences are background and not binding sites; settings: protein concentration: 200 nM; construct: GST-full length
T1 sequence: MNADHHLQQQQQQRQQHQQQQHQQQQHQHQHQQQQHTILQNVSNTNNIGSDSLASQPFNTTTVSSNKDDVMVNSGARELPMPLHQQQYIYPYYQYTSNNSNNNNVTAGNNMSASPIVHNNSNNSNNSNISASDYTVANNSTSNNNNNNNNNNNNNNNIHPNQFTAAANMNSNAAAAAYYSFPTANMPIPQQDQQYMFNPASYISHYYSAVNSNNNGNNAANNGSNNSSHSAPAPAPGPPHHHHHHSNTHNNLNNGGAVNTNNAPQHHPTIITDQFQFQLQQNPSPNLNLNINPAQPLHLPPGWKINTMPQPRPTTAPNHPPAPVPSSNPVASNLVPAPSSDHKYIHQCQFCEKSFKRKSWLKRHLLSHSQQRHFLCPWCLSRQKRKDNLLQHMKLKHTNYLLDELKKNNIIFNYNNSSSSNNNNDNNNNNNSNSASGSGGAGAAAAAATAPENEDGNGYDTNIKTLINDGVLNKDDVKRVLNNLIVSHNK
In short: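 Detection of bound protein used fluorescent anti-GST, with scans normalised by masliner. The proteins were GST-tagged yeast transcription factors applied at about 100-200 nM to universal all-10-mer Agilent arrays made double-stranded by primer extension. Each ungapped eight-base word, pooled with its reverse complement, was scored with an E-score from the Universal PBM Analysis Suite.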

Row | Sequence | PBM E-score
1 | ATACAAGA | 0.172
2 | GGATCTAC | 0.0501
3 | TCGAAAGA | -0.101
4 | CCCAATGA | -0.0677
5 | AAGGTGCT | 0.0153
6 | GACTAGGC | 0.116
7 | CTAAGCAC | -0.015
8 | GTCAGGAA | 0.277
9 | CCACCTTA | -0.034
10 | CAGTGTCC | 0.00077
11 | ACGCTGAT | 0.214
12 | AACCGGCT | -0.284
13 | GTAAAATA | 0.162
14 | ATAGCTTG | -0.109
15 | CGATATCC | -0.178
16 | AATGAGCG | 0.112
17 | GCTTAAAA | -0.0363
18 | CATTTCCA | 0.13
19 | ATACTGCC | -0.204
20 | CGTATAAC | 0.172
21 | ACGGCGTC | -0.0613
22 | AATTGGTG | -0.108
23 | GCGTCCAC | -0.291
24 | GGACATAA | -0.017
25 | AGCACCCC | -0.292

Row | Sequence | PBM E-score
26 | CTCCAGAA | -0.0339
27 | ACATCTAT | 0.0997
28 | AACAAGTC | 0.166
29 | AAGACATA | 0.0725
30 | CTCGGGGA | -0.167
31 | ATGGGGCA | -0.2
32 | CAACTGAA | 0.0709
33 | GGAGATCA | -0.0975
34 | ACCCAGGC | 0.136
35 | CCGCCGAA | -0.0458
36 | CTCGCAAG | -0.105
37 | AGTATTAA | 0.191
38 | GTGAGTTA | 0.0127
39 | AGTGATGA | 0.0151
40 | CGCGGGAA | 0.0452
41 | ATAATAAG | 0.0942
42 | TAGTAAGA | -0.00784
43 | CTCGCCCC | -0.205
44 | CAACACCC | -0.0891
45 | GTGTTGTA | 0.283
46 | AGGCTAAC | 0.0644
47 | CGGCGGTC | -0.192
48 | CCTCACTC | -0.167
49 | GGGCCCCC | -0.376
50 | TGAGCGAA | -0.125

Row | Sequence | PBM E-score
51 | AACCCCGA | -0.00295
52 | CCGTAAGA | -0.115
53 | CTAGAACA | 0.0902
54 | ACCTTAGC | -0.0753
55 | CTGGCTGA | -0.368
56 | GTGTAGTA | 0.292
57 | AACGTCGT | -0.00675
58 | AGGGTCAT | 0.0278
59 | AGCGTACG | -0.127
60 | GAAAGCAA | 0.134
61 | ACACGATA | 0.345
62 | GACCTAAA | -0.086
63 | AGGTAGGA | 0.026
64 | CTAGGGAG | -0.18
65 | TGGTCCAA | -0.152
66 | CATTCGCA | -0.0349
67 | GAATGTGA | -0.0391
68 | TCACCTAA | -0.0781
69 | AGTTGGAA | -0.213
70 | AATCGGTA | 0.142
71 | AATCGCGT | 0.194
72 | CTCCACTA | -0.00841
73 | ATCAGTTC | -0.222
74 | AGATCCAG | -0.11
75 | GAGAGCTC | -0.31

Row | Sequence | PBM E-score
76 | ATTAATAG | 0.192
77 | AGTCGCAA | 0.0417
78 | CTCAAAGC | -0.205
79 | AAGGCCCT | 0.0177
80 | CCCACCAA | -0.125
81 | CACCAGTA | -0.0226
82 | GCAGTGGC | -0.3
83 | AGAGACGA | -0.246
84 | ACCGTTCC | 0.101
85 | CCGTGAGC | -0.144
86 | ATAGGGGC | -0.106
87 | ACTACGCG | 0.289
88 | AGACCACA | -0.0763
89 | CCGAATCG | -0.149
90 | AGAAGAGC | -0.0798
91 | GAACTGGC | -0.128
92 | AATTATGT | 0.301
93 | AAACGTCG | -0.109
94 | CGAAAAAC | 0.0519
95 | GGATGCAA | -0.148
96 | GTTGTGGA | -0.0446
97 | AAGTGCCA | 0.0649
98 | CGAGCATA | -0.294
99 | GTAACTGA | 0.034
100 | CAAGGCTC | 0.0281

Row | Sequence | PBM E-score
101 | CCCGTCCC | -0.272
102 | AAACATAT | 0.231
103 | CGATCGTC | -0.199
104 | CAGCGTAA | 0.0403
105 | CCACAGTC | -0.269
106 | TCAACCGA | 0.131
107 | CAGTATGG | -0.159
108 | AAACTGGA | -0.0913
109 | CATTACAA | 0.301
110 | AATCACTG | -0.121
111 | GTATGAAC | 0.0103
112 | AATCTTTC | -0.0839
113 | GCACCCTA | 0.129
114 | AATCCGTA | -0.0768
115 | GACATACC | 0.167
116 | ATACACTG | 0.0308
117 | ACACTCGG | 0.0176
118 | GCTGGGAC | -0.284
119 | CTATACAG | 0.168
120 | CGCACGAG | -0.185
121 | AGTTCTTA | -0.0625
122 | ATATACCC | -0.0104
123 | ATGAGAAT | 0.03
124 | CGCGAGCG | -0.311
125 | AAGACACT | -0.0137

Row | Sequence | PBM E-score
126 | AGGTCTGG | -0.252
127 | CGGTGCGC | -0.195
128 | CACTGCTC | -0.267
129 | CACGTCTA | 0.159
130 | GGTTATAC | 0.031
131 | ACGGACCT | -0.0982
132 | GGCGGGCA | -0.0728
133 | AGGAAGCG | -0.0464
134 | AACAGTCC | -0.258
135 | AGATCGCA | -0.116
136 | TCAGATAA | -0.0998
137 | AGGCATCA | 0.409
138 | CGAAGAGA | -0.117
139 | ACGCCCAG | 0.0736
140 | CGCCGACC | -0.266
141 | CCGCACCC | -0.177
142 | GGGACTGA | -0.187
143 | CTGGATGA | -0.143
144 | CCGCTAGA | -0.196
145 | AGAAAGCT | -0.0593
146 | AGTAGGAG | -0.251
147 | GGGGTAAA | -0.0182
148 | AGAAGGTG | -0.0242
149 | ATTATAGC | -0.221
150 | ATGCCACC | -0.206

Row | Sequence | PBM E-score
151 | CGGCGAGA | -0.214
152 | CTACATAC | 0.301
153 | ATGCGTAG | 0.152
154 | ACGATACT | -0.0988
155 | AATGCCAG | -0.201
156 | CCTGCATC | 0.0447
157 | CAACAACA | 0.315
158 | GTAGTAGA | 0.166
159 | CGCCAGCA | -0.0712
160 | TATATGCA | 0.101
161 | AGTACGAA | -0.0897
162 | TAGTCGAA | -0.136
163 | GCTGGCGA | -0.235
164 | CGGAGCAG | -0.253
165 | ATGCCTCA | 0.111
166 | CAGTGGAC | -0.177
167 | GGTGTAAA | 0.297
168 | CTACACTA | 0.135
169 | CACGTTAC | 0.269
170 | CTTACTTA | 0.197
171 | CTGTAGGC | 0.285
172 | TCTCATCA | -0.124
